# Laboratory results reported in PubChem BioAssay AID504374 (National Center for Advancing Translational Sciences (NCATS), 2011).
# Among all 1,500 compounds or so, about 100 (6.7%) were called active. About 7% were inconclusive and are not listed. Calls follow the shape of the dose curve; as a rule, active = well fitted inhibition curve with a large enough effect; inconclusive = small, poorly fitted or top-dose-only effect, or effect the other way; inactive = flat fitted curve, though single readings scatter. The list shows a part of the results.
# Biological target: Runt-related transcription factor 1 (Homo sapiens) + Core-binding factor subunit beta (Homo sapiens) (UniProt Q01196+Q13951)
# Assay: qHTS Assay for Compounds Blocking the Interaction Between CBF-beta and RUNX1 for the Treatment of Acute Myeloid Leukemia: Hit Validation; also: nearly all actives have a fitted effect of over 60% in size
# Conditions: AlphaScreen CBFb-His/RUNX1-biotin binding; series mostly up to 59.8 µM; activity, negative = inhibition: at the top concentration
# Procedure, shortened: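 Compounds were added to a premixed CBF-beta-His/RUNX1-biotin complex (30 nM each, 20 min) for 15 min. Nickel and streptavidin AlphaScreen beads followed for 90 min at room temperature, with emission at 440 nm […].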
# % is scaled to controls: 0 for no effect and ±100 for the full control effect; potency is read from the fitted curve at half-maximal effect.
# UniProt Q01196, sequence (Q01196 whole entry, looked up): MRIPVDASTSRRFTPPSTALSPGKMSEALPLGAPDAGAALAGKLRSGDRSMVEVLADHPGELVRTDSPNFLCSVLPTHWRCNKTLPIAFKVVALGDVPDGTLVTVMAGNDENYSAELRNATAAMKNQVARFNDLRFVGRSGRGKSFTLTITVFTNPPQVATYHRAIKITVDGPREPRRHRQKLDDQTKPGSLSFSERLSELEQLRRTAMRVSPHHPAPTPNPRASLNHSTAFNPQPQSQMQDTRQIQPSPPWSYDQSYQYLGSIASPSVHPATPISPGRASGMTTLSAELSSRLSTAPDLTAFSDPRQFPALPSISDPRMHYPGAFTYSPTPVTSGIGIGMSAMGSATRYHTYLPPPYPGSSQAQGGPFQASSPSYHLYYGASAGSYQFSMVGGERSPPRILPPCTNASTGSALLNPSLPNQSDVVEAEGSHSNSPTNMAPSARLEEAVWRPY
# UniProt Q01196, sequence (Q13951 whole entry, looked up): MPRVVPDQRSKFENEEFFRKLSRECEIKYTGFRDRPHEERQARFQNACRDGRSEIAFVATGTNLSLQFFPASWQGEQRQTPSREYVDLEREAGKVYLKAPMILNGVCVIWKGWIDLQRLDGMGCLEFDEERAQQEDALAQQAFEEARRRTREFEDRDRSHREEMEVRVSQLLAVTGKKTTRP
SMILES,"activity, negative = inhibition",Potency
COc1ccc(-n2c(=S)[nH]c3[nH]ncc3c2=O)cc1,inactive: -6.5%,–
CCc1c(C)nc2c(-c3ccccc3)c(C)nn2c1Nc1ccc(NC(C)=O)cc1,inactive: 6.82%,–
O=C(CN1CCCC1)Nc1c(C(=O)C2CC2)oc2ccccc12,inactive: -0.446%,–
CC1=NN(c2nc3ccccc3s2)C(O)(C(F)(F)F)C1 (stereo unspecified),inactive: -0.882%,–
COc1cccc(NC(=O)C(=O)NCCc2ccc(F)cc2)c1,inactive: 5.31%,–
Nc1ncnc2c1ncn2C1OC(CO)C(O)C1N (stereo unspecified),inactive: -0.781%,–
Cc1ccc(C(=O)COc2cc(C)nc3nncn23)cc1,inactive: -3.97%,–
CC1=NN(c2ccccc2)C(=O)/C1=C/C=C/c1ccc(N(C)C)cc1,–,active: 1120 nM
Cc1ccnn1CC(=O)N/N=C/c1cn[nH]c1-c1ccc(F)cc1,inactive: -5.89%,–
COc1cccc(Nc2ncc(C#N)c(N)n2)c1,inactive: -3.11%,–
O=C(NNC(=O)C(Cl)Cl)c1cnn(-c2ccccc2)c1C(F)(F)F,inactive: -4.25%,–
CC(C)N(Cc1ccccc1)C(=O)c1ccc2nsnc2c1,inactive: -10.3%,–
Cc1nc(-c2ccc3c(c2)CCC(=O)N3)cs1,inactive: -3.11%,–
O=C(N/N=C/C1=Cc2ccccc2OC1)c1ccncc1,inactive: 5.44%,–
COc1ccc(C(=O)NC(=S)NNC(=O)c2c(-c3ccccc3)noc2C)cc1OC,inactive: -18.2%,–
CCOC(=O)CSc1nnc(Cn2nnc3ccccc32)n1-c1ccc(F)cc1,inactive: -4.39%,–

SMILES,"activity, negative = inhibition",Potency
COc1cc(OC)c(OC)cc1/C=N/NC(=O)CCc1c(C)n[nH]c1C,inactive: -2.77%,–
CC(C)(C)Sc1ccc([N+](=O)[O-])cc1C(=O)Nc1ccncc1,inactive: -1.77%,–
O=C(Oc1c(-c2ccccc2)c(=O)n2c3c(cccc13)CC2)c1ccc(F)cc1,inactive: 5.18%,–
CC(=O)/C=C(\C)N=Nc1c(O)[nH]c2ccccc12,inactive: -1.25%,–
O=C(CN1CCN(S(=O)(=O)c2ccc(Cl)s2)CC1)N1CCOCC1,inactive: 3.13%,–
CC(C)(C)c1csc(Sc2ccc([N+](=O)[O-])cn2)n1,inactive: 3%,–
COCc1cc(=O)n2[nH]c(-c3ccco3)cc2n1,inactive: -12.9%,–
CC(C)COC(=O)NC1c2ccccc2Oc2ccccc21,inactive: 3.64%,–
Cn1c(NC(=O)c2ccc(F)cc2)c(-c2cccs2)c(=O)c2ccccc21,inactive: 4.67%,–
COc1ccc(-c2nnsc2N2C(=O)c3ccccc3C2=O)cc1,inactive: -3.86%,–
O=C(Cc1n[nH]c(=O)c2ccccc12)OCc1c(Cl)cccc1Cl,inactive: -14.4%,–
COc1ccc(OS(=O)(=O)c2c(C)noc2C)cc1,inactive: -2.38%,–
c1ccc(-c2nnc(-c3ccccn3)nc2NC2CCCCC2)cc1,–,active: 2240 nM
NS(=O)(=O)c1ccc(N/N=C/c2ccc(C(=O)O)cc2)c([N+](=O)[O-])c1,inactive: -4.55%,–
CC(C)(C)c1ccc(NC(=O)c2ccsc2)cc1,inactive: 6.68%,–
